The other results are listed elsewhere or left out. Repeats are few or missing, and single values can be far off.
Key:
Test in all cases: cell count relative to DMSO control; melanoma cells; higher = more viable cells
Details in all cases: library dose: standard library concentration; 72 h
[1] = test system: G361
[2] = test system: IPC-298
[3] = test system: IST-MEL1
[4] = test system: LB2518-MEL
[5] = test system: LOXIMVI
[6] = test system: MEL-HO
[7] = test system: MZ2-MEL
[8] = test system: MeWo
[9] = test system: RPMI7951
[10] = test system: RVH-421
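Note: cells treated in 1,536-well plates, then fixed and DAPI-stained, with nuclei counted from automated high-throughput microscope images.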

| SMILES | cell count [1] | cell count [2] | cell count [3] | cell count [4] | cell count [5] | cell count [6] | cell count [7] | cell count [8] | cell count [9] | cell count [10] |
| --- | --- | --- | --- | --- | --- | --- | --- | --- | --- | --- |
| OCc1c[nH]c2ccccc12 [Indole-3-carbinol] + COC(=O)c1sccc1S(=O)(=O)Nc1ccc(Nc2ccccc2)cc1OC [GSK0660] (first compound 4 µM, partner dose 5 µM) | 104% | 116% | 120% | 113% | 109% | 117% | 99% | 113% | 152% | 126% |
| Cn1c(Nc2ccc(C(F)(F)F)cc2)nc2cc(Oc3ccnc(-c4ncc(C(F)(F)F)[nH]4)c3)ccc21 + COc1cc2ncnc(Nc3ccc(Oc4ccccc4)cc3)c2cc1OC [SrcI1] (first compound 0.4 µM, partner dose 10 µM) | 24.1% | 50.2% | 73.6% | 33.1% | 72% | 64.6% | 52.6% | 51.2% | 38% | 56.5% |
| C#Cc1cccc(Nc2ncnc3cc(OCCOC)c(OCCOC)cc23)c1 [erlotinib] + C[C@@H]1CCN(C(=O)CC#N)C[C@@H]1N(C)c1ncnc2[nH]ccc12 [CP690550] (first compound 4 µM, partner dose 5 µM) | 71.4% | 74.3% | 83.6% | 65.1% | 89% | 82.1% | 86.3% | 73.1% | 69.1% | 113% |
| O=C(CCCCCCC(=O)Nc1ccccc1)NO [vorinostat] + COc1cc2c(Oc3ccc4[nH]c(C)cc4c3F)ncnc2cc1OCCCN1CCCC1 [cediranib] (first compound 0.4 µM, partner dose 2 µM) | 67.7% | 79.2% | 91.6% | 77% | 52.3% | 88% | 95.9% | 75.2% | 67.3% | 78.8% |
| COCC[n+]1c2c(n(Cc3cnccn3)c1C)C(=O)c1ccccc1C2=O + Cn1cncc1[C@@](N)(c1ccc(Cl)cc1)c1ccc2c(c1)c(-c1cccc(Cl)c1)cc(=O)n2C [tipifarnib] (first compound 0.002 µM, partner dose 0.05 µM) | 71.9% | 50% | 90.4% | 23.6% | 52.2% | 80.6% | 40.3% | 62.2% | 37.5% | 51.2% |
| Nc1cccc2c1CN(C1CCC(=O)NC1=O)C2=O (stereo not given) [lenalidomide] + COc1cc(N2CCC(N3CCN(C)CC3)CC2)ccc1Nc1ncc(Cl)c(Nc2ccccc2S(=O)(=O)C(C)C)n1 [NVP-TAE684] (first compound 5 µM, partner dose 0.4 µM) | 75% | 90.1% | 98.5% | 92.7% | 106% | 78.5% | 84.8% | 75.8% | 78% | 88.9% |
| COCC[n+]1c2c(n(Cc3cnccn3)c1C)C(=O)c1ccccc1C2=O + O=C(Nc1ccccc1)c1cc([N+](=O)[O-])ccc1Cl [GW9662] (first compound 0.002 µM, partner dose 10 µM) | 72.8% | 49.7% | 44.3% | 22.4% | 73.6% | 84.6% | 28.1% | 38.5% | 37.5% | 85.6% |
| Clc1ccc(Nc2nnc(Cc3ccncc3)c3ccccc23)cc1 [vatalanib] + C[C@]1(c2nc3c(C(N)=O)cccc3[nH]2)CCCN1 [Veliparib] (first compound 10 µM, partner dose 7 µM) | 85.8% | 69.9% | 72% | 70.3% | 62.1% | 68% | 66.3% | 63.8% | 85.1% | 85.6% |
| C#Cc1cccc(Nc2ncnc3cc(OCCOC)c(OCCOC)cc23)c1 [erlotinib] + O=S(=O)(c1ccccc1)N(CC(F)(F)F)c1ccc(C(O)(C(F)(F)F)C(F)(F)F)cc1 [T0901317] (first compound 4 µM, partner dose 7 µM) | 57.2% | 64.2% | 83% | 69.2% | 70.8% | 77.1% | 78.9% | 67.9% | 64.5% | 94.5% |
| Nc1cccc2c1CN(C1CCC(=O)NC1=O)C2=O (stereo not given) [lenalidomide] + Cn1nnc2c(C(N)=O)ncn2c1=O [temozolomide] (first compound 5 µM, partner dose 10 µM) | 97.6% | 107% | 85.3% | 106% | 93.5% | 105% | 111% | 120% | 81.5% | 145% |
| Nc1cccc2c1CN(C1CCC(=O)NC1=O)C2=O (stereo not given) [lenalidomide] + COc1cc(Nc2ncc(F)c(Nc3ccc4c(n3)NC(=O)C(C)(C)O4)n2)cc(OC)c1OC [Tamatinib] (first compound 5 µM, partner dose 2 µM) | 58.8% | 102% | 60.7% | 66.1% | 29.4% | 83.6% | 91.9% | 71.9% | 19.6% | 69.3% |
| Clc1ccc(Nc2nnc(Cc3ccncc3)c3ccccc23)cc1 [vatalanib] + C#Cc1cccc(Nc2ncnc3cc(OCCOC)c(OCCOC)cc23)c1 [erlotinib] (first compound 10 µM, partner dose 4 µM) | 62.1% | 50.4% | 82.1% | 59.3% | 66.3% | 65.8% | 49.9% | 61% | 59% | 56.8% |
| O=C(CCCCCCC(=O)Nc1ccccc1)NO [vorinostat] + CCN(CC)CCCCNc1ncc2cc(-c3cc(OC)cc(OC)c3)c(NC(=O)NC(C)(C)C)nc2n1 [PD173074] (first compound 0.4 µM, partner dose 0.5 µM) | 73.5% | 72.4% | 96.2% | 74.3% | 71.5% | 84.2% | 87% | 64.5% | 76.4% | 106% |
| C#Cc1cccc(Nc2ncnc3cc(OCCOC)c(OCCOC)cc23)c1 [erlotinib] + COC(=O)c1sccc1S(=O)(=O)Nc1ccc(Nc2ccccc2)cc1OC [GSK0660] (first compound 4 µM, partner dose 5 µM) | 83.5% | 64.8% | 94.4% | 65.4% | 101% | 87.2% | 75.7% | 74% | 57.7% | 75.5% |
| Nc1cccc2c1CN(C1CCC(=O)NC1=O)C2=O (stereo not given) [lenalidomide] + Cc1cc(N2CCOCC2)cc2[nH]c(-c3c(NC[C@@H](O)c4cccc(Cl)c4)cc[nH]c3=O)nc12 [BMS536924] (first compound 5 µM, partner dose 1 µM) | 80.7% | 77.6% | 83.5% | 80.5% | 86.6% | 84.1% | 110% | 68% | 88.2% | 100% |
| O=C(CCCCCCC(=O)Nc1ccccc1)NO [vorinostat] + C=CCn1c(=O)c2cnc(Nc3ccc(N4CCN(C)CC4)cc3)nc2n1-c1cccc(C(C)(C)O)n1 [MK1775] (first compound 0.4 µM, partner dose 0.1 µM) | 58.3% | 67.9% | 78.6% | 63.7% | 54% | 74% | 126% | 82.1% | 35.4% | 113% |
| Cn1c(Nc2ccc(C(F)(F)F)cc2)nc2cc(Oc3ccnc(-c4ncc(C(F)(F)F)[nH]4)c3)ccc21 + Cc1cc(N2CCOCC2)cc2[nH]c(-c3c(NC[C@@H](O)c4cccc(Cl)c4)cc[nH]c3=O)nc12 [BMS536924] (first compound 0.4 µM, partner dose 1 µM) | 13% | 47.1% | 287% | 25.7% | 45% | 67.9% | 60% | 62.6% | 55.8% | 41.9% |
| OCc1c[nH]c2ccccc12 [Indole-3-carbinol] + Nc1cccc2c1CN(C1CCC(=O)NC1=O)C2=O [lenalidomide] (first compound 4 µM, partner dose 5 µM) | 108% | 98.8% | 112% | 87.4% | 90.6% | 105% | 105% | 96.6% | 69.4% | 128% |
| O=C(CCCCCCC(=O)Nc1ccccc1)NO [vorinostat] + C[C@@H]1CCN(C(=O)CC#N)C[C@@H]1N(C)c1ncnc2[nH]ccc12 [CP690550] (first compound 0.4 µM, partner dose 5 µM) | 71.4% | 88.9% | 98.7% | 93% | 69.2% | 91.3% | 111% | 95.7% | 59.2% | 118% |
| OCc1c[nH]c2ccccc12 [Indole-3-carbinol] + C[C@@H]1CCN(C(=O)CC#N)C[C@@H]1N(C)c1ncnc2[nH]ccc12 [CP690550] (first compound 4 µM, partner dose 5 µM) | 106% | 115% | 107% | 106% | 115% | 100% | 122% | 85% | 95.4% | 95.5% |
| C#Cc1cccc(Nc2ncnc3cc(OCCOC)c(OCCOC)cc23)c1 [erlotinib] + N#Cc1c(O)c2c(-c3ccc(-c4ccccc4O)cc3)csc2[nH]c1=O [A769662] (first compound 4 µM, partner dose 10 µM) | 91.3% | 71% | 91.4% | 70.4% | 98% | 69.6% | 77.9% | 79.1% | 85.6% | 73.5% |
| O=C(CCCCCCC(=O)Nc1ccccc1)NO [vorinostat] + O=C(O)C(=O)Nc1sc2c(c1C(=O)O)CCNC2 [TCS401] (first compound 0.4 µM, partner dose 8.33333 µM) | 69.1% | 76.2% | 106% | 84.2% | 86.4% | 89.5% | 93.4% | 95.8% | 81.5% | 73.5% |
| O=C(CCCCCCC(=O)Nc1ccccc1)NO [vorinostat] + NC(=O)Nc1cc(-c2cccc(F)c2)sc1C(=O)N[C@H]1CCCNC1 [AZD7762] (first compound 0.4 µM, partner dose 0.1 µM) | 60.9% | 59.4% | 83.2% | 57.2% | 84.8% | 71.6% | 124% | 55.8% | 21.4% | 147% |
| OCc1c[nH]c2ccccc12 [Indole-3-carbinol] + O=C(CCCCCCC(=O)Nc1ccccc1)NO [vorinostat] (first compound 4 µM, partner dose 0.4 µM) | 74.8% | 86.3% | 87.4% | 90.1% | 67.7% | 88.8% | 110% | 85.2% | 64.2% | 104% |

Reference: the supplement of paper PMC4604168 (melanoma cell lines)
